Assay results published in article PMC12136788.
The other results are listed elsewhere or left out.

B1: chr14:78183846:78183847:+_ENSG00000119705_ENST00000557342|hu_hu|hu_hu_hu_mus_False|48_68 (ssRNA)
RNA: GGGAGUUCUACAGUCCGACGAUCUCUCAGAAAUCUUUCUUCAUCAGAUGUUUGAGCUCCGUGCAAAAGUUUUGGCCUUUGAGCUUGAACCUGGACCUAUGGGAGGGAAAGCACUGUCAGAAAAGGUAAUUUUUUUUUUAAAGACAACAGAGGAUUGAGCAUCA
B2: chr6:40197388:40197389:+_ENSMUSG00000057716_ENSMUST00000061740|mus_mus|mus_mus_mus_hu_False|38_68 (ssRNA)
RNA: GGGAGUUCUACAGUCCGACGAUCGAGACACUGGGGUGGAUUUAUUCCACCUCUGUUUGGGUGCUAGUAAGAUAGAUUGUUAUUUUGGGAUUCAUGGCCUUGAAGAUCAAGAGGGAAAGGAAGAGGAUGGAAAGAGUCAAGAGUCAACAGAGGAUUGAGCAUCA
B3: chr17:4210377:4210378:-_ENSG00000132388_ENST00000396981|hu_mus|motif|central (ssRNA)
RNA: GGGAGUUCUACAGUCCGACGAUCAAGUGUAUCUGGAGGACCAAUAAUAAGGACUUCCCAACGAUAGAGAUCAUUGUCGUCGGUUAAACCUGCUGAAAAGCCUUCCACUGGAUUUUUGUUGAGUUCUGCCAGCUGUCUUCGCAGCAACAGAGGAUUGAGCAUCA
B4: chr5:144009550:144009551:+_ENSMUSG00000029587_ENSMUST00000032591|mus_hu|FALSE|FALSE (ssRNA)
RNA: GGGAGUUCUACAGUCCGACGAUCGUCAAAAUUUACAGAAAAUAAAUCUCUAUAUCAACAGCUUAAAAUAAAUGACUUACCUAAAGUCCACUUCUGAACUGCAUAACUCCUAUAAAGGUUUCAGUCUGUACCAAUUAGAAUGUCCAACAGAGGAUUGAGCAUCA
B5: chr17:87835246:87835247:-_ENSMUSG00000036438_ENSMUST00000040440|mus_hu|FALSE|FALSE (ssRNA)
RNA: GGGAGUUCUACAGUCCGACGAUCGAGAUCUCAUUACAGUUCCCAAUUCCUUUGUUGUUAUAGUUCCAUCACCAUCUUUGUCAAAUAGUGAAAAAGCUUCUUUGAAUUCUGCAAUCUGCUCUUCAGUCAGUUGGUCAGCCAUGCCAACAGAGGAUUGAGCAUCA
B6: chr2:47387792:47387793:-_ENSG00000143933_ENST00000272298|hu_hu|hu_hu_hu_mus_True|28_28 (ssRNA)
RNA: GGGAGUUCUACAGUCCGACGAUCUAAGGACAAUGACAGUAAGAUAAGGGAAGAAAACAUGGAGGAAUGAAGUCCUAAUUACUAUACAUGCAUAUUUUUUGACAGUAAGGGAGAAACACCUUUUACAGAUAAGUUACAAACAAACAACAGAGGAUUGAGCAUCA
B7: chr19:8913615:8913616:-_ENSMUSG00000071658_ENSMUST00000096259|mus_hu|mus_mus_mus_hu_False|8_8 (ssRNA)
RNA: GGGAGUUCUACAGUCCGACGAUCAGGGUACCAAAACCUUCUGCCUGAAAUGGGUGCCCCACCCAGUAGGGAGUUGCAGCUGAAAGUAUCUGAUGCAGAAGCAGUGACUAUACGAAAGGAGGCCCCUGAUGCUCAGAAGGCCAGCAACAGAGGAUUGAGCAUCA
B8: chr15:81824118:81824119:-_ENSMUSG00000022472_ENSMUST00000152227|mus_hu|FALSE|FALSE (ssRNA)
RNA: GGGAGUUCUACAGUCCGACGAUCAGGUUCAUGUGAAGAGAGGGAAUCUGAAAGUCUCUCUGGAUUAGAGACUCCCAGACUGUUCCCUGCCUAUAACCUCCUAGCAGCAAGUCAUUAGGAAAAUGCCCACUCAUGCCCCAACCUCAACAGAGGAUUGAGCAUCA
B9: chr1:60041781:60041782:+_ENSMUSG00000041040_ENSMUST00000036540|mus_hu|mus_mus_mus_hu_False|8_8 (ssRNA)
RNA: GGGAGUUCUACAGUCCGACGAUCAAGUUUACAAUAGUAAAGUAAAUGCAGUAGUGGCAAAUUUUCUUUUAUUUUCCUUCACAAAAGAAAAUCUUUAUAACCCAGUCCUAGUCUUGGACAUAGUGAAUCUCCAUGGGUCUGACUCAACAGAGGAUUGAGCAUCA
B10: chr12:493273:493274:-_ENSG00000073614_ENST00000399788|hu_mus|hu_hu_hu_mus_False|58_58 (ssRNA)
RNA: GGGAGUUCUACAGUCCGACGAUCUUUUCUCUCCACCACAGGGAUCUUCAAUGUAGAUCCUUGAAGUUCCCAAAAUUUUGCUAGUUGAUCCAAGAAGUCCAAUCUUACUCUAGUCAUUGCCUCAAGUUCAUUCAGGCGCUGGACCAACAGAGGAUUGAGCAUCA
B11: chr5:108714765:108714766:-_ENSG00000198961_ENST00000361557|hu_mus|motif|central (ssRNA)
RNA: GGGAGUUCUACAGUCCGACGAUCACAAACUGCUGGAGUAUGCUCUGUCUCAGUGCGAUUAUGAAGGUUUGUAUUGCUUUCGGAGGUCUCCCUGACUUCCUCACUAUGACAUACUGUGGCAAUGGAUGGACUGCUCUCAGUGCUCAACAGAGGAUUGAGCAUCA
B12: chr11:94923035:94923036:-_ENSG00000149212_ENST00000536441|hu_hu|FALSE|FALSE (ssRNA)
RNA: GGGAGUUCUACAGUCCGACGAUCUCCAGUUUUGACAAGUUUCUGAAUGUGCUCUUUUGUGAUCAGCCAAGGUCGAUGUGCUAGCAGCUUAUUAAUUUCAUUAAGAUUUUUCAGUCUUUGUGGCACAUAUUCCAAACCAUUCAACAACAGAGGAUUGAGCAUCA
B13: chr8:74527950:74527951:-_ENSG00000040341_ENST00000355780|hu_mus|motif|central (ssRNA)
RNA: GGGAGUUCUACAGUCCGACGAUCUUCUUUAAUAACCUCAAAACUGACAGGCAUAUUUCUCUUCAGCGCAAUCUCAAACACGGAGCUUAUUUCAGAUUUAUUUGCAUCUUUAUCGUCAUCCAUUUCUUUUCCUGAUUCACCAUUCAACAGAGGAUUGAGCAUCA
B14: 29362346_29365796_1561_CDS_ENSG00000159023_ENST00000356093|human|control|control (ssRNA)
RNA: GGGAGUUCUACAGUCCGACGAUCGCUUUUGGGAAUGGUGUCUGUAGAUGUCAAUCUGAAAAACGUGUGAUGUUCUACACAGACUUUCCAUAAUUUCUUAGCUGCUCGGUAACUGGGAAGUUUGAAUCCGAUGGUACUUUCAUACAACAGAGGAUUGAGCAUCA
B15: chr2:90693216:90693217:+_ENSMUSG00000027282_ENSMUST00000136872|mus_hu|FALSE|FALSE (ssRNA)
RNA: GGGAGUUCUACAGUCCGACGAUCCUCCUUGAUAACGUGGUCAAAGGAAGAUGAGACUUCUUUCUGUACAUUUCCAGGUCCUAACUCCUGUAAAACUUUACCAUGGACCACAGUUCCAAGGACUCCCGAACACAGUCUUGGAGUCAACAGAGGAUUGAGCAUCA
B16: chr8:95500983:95500984:-_ENSG00000164944_ENST00000437199|hu_hu|hu_hu_hu_mus_True|28_68 (ssRNA)
RNA: GGGAGUUCUACAGUCCGACGAUCAGAACACAUCUAUCGAGUAAAGGACCGUACAUGACGGCCUCUAACCACUGCCUCACUAACAAACUUUCCUCUCGAGCCUCCACCUGCCGCUAUUGUACUAGCCCAGGACGGUCCCAGGCCCAACAGAGGAUUGAGCAUCA
B17: chr18:56819859:56819860:+_ENSG00000166562_ENST00000588875|hu_hu|motif|central (ssRNA)
RNA: GGGAGUUCUACAGUCCGACGAUCAACUUUGAUUACUCUGUGAACUAUUGGAAUGUCUCGUCCUUCAACUUUAAAAACAACGGUUUCACCAGCUCUGAUUGGGUCUUCCCGGAAAUUUGUGAGGAACAGGAGGUCUCCUCUGUGCAACAGAGGAUUGAGCAUCA
B18: chr1:167252050:167252051:+_ENSMUSG00000040836_ENSMUST00000111450|mus_hu|FALSE|FALSE (ssRNA)
RNA: GGGAGUUCUACAGUCCGACGAUCACUGUGAAGAGGAGGAAAUGAUGCAUGUGGGGGUCUCCUUCCAAGCCCUUCGUCUCUGGUCCUCCCAUGCCCCACCUCCCAAAAAGCCACAGCCACAUCUCUAGAUUUUUUUUUGGUUUUCAACAGAGGAUUGAGCAUCA
B19: chr1:127303955:127303956:-_ENSMUSG00000026341_ENSMUST00000027579|perfect_dup|FALSE|FALSE (ssRNA)
RNA: GGGAGUUCUACAGUCCGACGAUCUAUUACUGUACCCGUCAGCGUCCGCUCUCCUACUUGUCUUGAGGUCCAGGAUGCAGCUAAGGCAAGAACAGCCUGCACAGCAAUGUACAAGCCUGGAACAUUGAAGGAUUCAAACAUUAUCAACAGAGGAUUGAGCAUCA
B20: chr7:7679991:7679992:-_ENSG00000106399_ENST00000396682|hu_hu|hu_hu_hu_mus_False|8_48 (ssRNA)
RNA: GGGAGUUCUACAGUCCGACGAUCUGGGAUGAAUCUUUUCCAGCUUCCCCACGAAGCACACGGGCCGGUCGAUAUACUGUGGUAACAUGCCGGCGUUGACGCGCGCUUUGGGGAGCUGCAUUAUGUCCACCAUGAUUCUGCCGCCAACAGAGGAUUGAGCAUCA
B21: chr13:107726893:107726894:-_ENSMUSG00000042590_ENSMUST00000080856|mus_mus|FALSE|FALSE (ssRNA)
RNA: GGGAGUUCUACAGUCCGACGAUCCCUUUCCACUUGUCCACACGAAGCGGCGUUGGUUGCUUCCUCGUCCCCCACGCUCCUAGUCCACACGCUGCCGCCUACUGAUGCCGAAAACGGCUUCUAGGAACGCGCCAUGUUCCGCGUCAACAGAGGAUUGAGCAUCA
B22: chr2:78710632:78710633:+_ENSMUSG00000027011_ENSMUST00000028398|mus_mus|motif|central (ssRNA)
RNA: GGGAGUUCUACAGUCCGACGAUCUCGGGCUCUGGAGCGGCAGGGUCUCGCUGAUCUGCAUCUGAACUGCCACUGCUGGUGCGGGGGCUCUCAUCAUCCGACCUUUGCCUGUCACUGGACAUCUUGGUGAACUUAUCUCUGGGACAACAGAGGAUUGAGCAUCA

target: T1, UNK ZnF1-3 (human, UniProt Q9C0B0 31-174); assay: nsRBNS (natural sequence RNA bind-n-seq); RBNS binding buffer (assumed for nsRBNS): 25 mM Tris pH 7.5, 150 mM KCl, 3 mM MgCl2, 0.01% Triton X-100, 500 ug/ml BSA, 20 U/ml SUPERase-In, 4 C; UNK is unkempt and MSI1 is Musashi-1; names of the RNAs are library labels; protein concentration not given here; high values mean tight binding
T1 sequence: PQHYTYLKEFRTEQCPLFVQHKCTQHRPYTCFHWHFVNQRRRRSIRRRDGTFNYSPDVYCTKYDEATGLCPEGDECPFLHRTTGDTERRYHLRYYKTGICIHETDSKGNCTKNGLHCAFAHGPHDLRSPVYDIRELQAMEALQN

Row | Binder | binding signal
1 | B1 | 1.53 enrichment R
2 | B2 | 1.7 enrichment R
3 | B3 | 0.777 enrichment R
4 | B4 | 0.576 enrichment R
5 | B5 | 0.672 enrichment R
6 | B6 | 1.9 enrichment R
7 | B7 | 0.876 enrichment R
8 | B8 | 0.835 enrichment R
9 | B9 | 0.734 enrichment R
10 | B10 | 0.951 enrichment R
11 | B11 | 0.748 enrichment R
12 | B12 | 1.24 enrichment R
13 | B13 | 0.854 enrichment R
14 | B14 | 0.874 enrichment R
15 | B15 | 0.621 enrichment R
16 | B16 | 1.41 enrichment R
17 | B17 | 1 enrichment R
18 | B18 | 0.787 enrichment R
19 | B19 | 0.988 enrichment R
20 | B20 | 0.418 enrichment R
21 | B21 | 0.673 enrichment R
22 | B22 | 0.899 enrichment R
